Data taken from ChEMBL document CHEMBL1201862, “PubChem BioAssay data set” (2004).

system: NCI-H322M; assay: NCI anticancer screen, dose series, 48 h

Row | SMILES | GI50
1 | O=C1CSC(c2c[nH]c3ccccc23)N1c1ccc(Cl)cc1Cl (configuration not stated) | inactive: > 100 µM
2 | O=CC[C@H]1CCc2ccccc2C12CCC(=O)CC2 | inactive: > 100 µM
3 | Cc1cc(C)n(CC(Cn2nc(C)cc2C)=C(/C(Cl)=C(/Cl)Nc2ccc([N+](=O)[O-])cc2)[N+](=O)[O-])n1 | inactive: 4.82 µM
4 | COC(=O)[C@H](Cc1ccc(O)cc1)NC(=O)[C@H](Cc1ccc(O)cc1)NC(=O)OC(C)(C)C (HELM PEPTIDE1{[CC(C)(C)OC(=O)[*:2]].Y.Y.[CO[*:1]]}$$$$V2.0) | inactive: > 100 µM
5 | CCOC(=O)c1sc2c(c1O)c(=O)n(-c1ccccc1)c(=S)n2-c1ccccc1 | inactive: 23.1 µM
6 | Cc1ccc([N+](=O)[O-])cc1NC(=O)/C(=N/NC(=S)NN)C1SC(=S)NC1=O (configuration not stated) | inactive: > 100 µM
7 | C=C(C)CCN[Si](c1ccccc1)(c1ccccc1)C(C)(C)C | inactive: 31.4 µM
8 | COc1ccc2c(CCNS(=O)(=O)c3ccccc3)c(C(C)=O)[nH]c2c1[N+](=O)[O-] | inactive: > 100 µM
9 | CN(C(=O)c1ccc([N+](=O)[O-])cc1)c1ccccc1 | inactive: > 100 µM
10 | COc1cc(C(=O)Nc2c3ccccc3nc3ccccc23)cc(OC)c1OC | inactive: > 100 µM
11 | CN1C(=O)[C@](C)(Cc2ccc(F)cc2)N(C(=O)OC(C)(C)C)[C@@H]1C(C)(C)C | inactive: 72.8 µM
12 | C[N+](C)=c1nc(N2CCc3ccccc3C2)ss1.[O-][Cl+3]([O-])([O-])[O-] | inactive: > 100 µM
13 | C=C1C(=O)O[C@H]2[C@@H](O)[C@H](C)CCC[C@]3(C)O[C@H]3CC[C@@]3(C)O[C@@H]3C[C@@H]12 | inactive: 5.75 µM
14 | NCCNS(=O)(=O)c1ccc(N)cc1 | inactive: > 100 µM
15 | S=C(Nc1cccc(C2(N3CCCCC3)CCCCC2)c1)Nc1cccc(C2(N3CCCCC3)CCCCC2)c1 | inactive: 31.9 µM
16 | Cc1cc(C#N)c[n+](C)c1 | inactive: > 100 µM
17 | C=C1CC(c2ccc(OCCCN3C(=O)c4ccccc4C3=O)cc2)OC1=O (configuration not stated) | inactive: 16.8 µM
18 | O=C(Cn1ccnc1[N+](=O)[O-])NCCO [ETANIDAZOLE] | inactive: > 100 µM
19 | CCOc1ccccc1NC(=O)C(=O)CC(=O)C1=C(C)Nc2ccccc2S1 | inactive: > 100 µM
20 | O=C1C(=O)N(c2ccc(Cl)cc2Cl)C(=O)C(=O)C1c1nc2ccccc2s1 | inactive: > 100 µM
21 | COC(=O)C(=O)C(C(=O)Nc1cccc(C)c1C)C1Sc2ccccc2NC1=O (configuration not stated) | inactive: 17.4 µM
22 | O=C(/C=C/c1ccc[nH]1)c1ccccc1 | inactive: > 100 µM

Row | SMILES | GI50
23 | O=C(OC(=O)n1ccc2ccccc21)n1ccc2ccccc21 | inactive: > 100 µM
24 | COC(=O)C(Cc1ccc2c(c1)CCC2)Cc1ccc2c(c1)CCC2 | inactive: > 100 µM
25 | O=C(O)c1ccc(OCc2ccccc2)c(Cl)c1 | inactive: > 100 µM
26 | OC1(c2ccc(Cl)cc2)c2c(ccc3c2OCO3)C2=NCCN21 (configuration not stated) | inactive: 13.3 µM
27 | O=C1/C(=C/c2ccc(O)cc2)CC/C1=C\c1ccc(O)cc1 | inactive: > 100 µM
28 | CC(C)CC(CNC(Cc1ccc(Cl)cc1)C(N)=O)NC(=O)C(Cc1c[nH]cn1)NC(=O)CNC(=O)C(NC(=O)C(C)NC(=O)C(Cc1c[nH]c2ccccc12)NC(=O)C(CCC(=O)O)NC(=O)C(N)Cc1ccccc1)C(C)C (configuration not stated) | inactive: > 133 µM
29 | CN(C)CCN(C)CC1COC(C)(C)O1 (configuration not stated) | inactive: > 100 µM
30 | CO[C@H]1/C=C/O[C@@]2(C)Oc3c(C)c(O)c4c(O)c(c(/C=N/N5CCN(C)CC5)c(O)c4c3C2=O)NC(=O)/C(C)=C\C=C\[C@H](C)[C@H](O)[C@@H](C)[C@@H](O)[C@@H](C)[C@H](OC(C)=O)[C@@H]1C [RIFAMPIN] | inactive: > 100 µM
31 | CC(=O)N1CCN(C=S)CC1 | inactive: > 100 µM
32 | C=C(CCCCC)CN1CCCC1[C@@](C)(O)CC(=O)OCC (some centres not stated) | inactive: > 100 µM
33 | O=C1CSc2sc(=S)sc2S1 | inactive: > 100 µM
34 | CC(=O)Nn1c(Cc2ccc(Cl)cc2)nn(C)c1=O | inactive: > 100 µM
35 | CN(C)c1ccc(/C=c2\c3cc([N+](=O)[O-])ccc3n3c2cc(-c2ccccc2)[n+]3C)cc1 | inactive: 2.89 µM
36 | COc1ccc(OC)c(C(Cc2ccnc3ccccc23)Cc2ccnc3ccccc23)c1 | inactive: > 10 µM
37 | NC(=O)NC(=O)c1cccc(NC(=O)CF)c1 | inactive: > 100 µM
38 | CN(C)CCCOC(=O)C(c1ccccc1)C1(O)CCSCC1 (configuration not stated) | inactive: > 100 µM
39 | CCc1n[nH]c(=O)n1NC(=O)c1ccccc1C(=O)O | inactive: > 100 µM
40 | CCCCCCCCCCCCOC(=S)NCCCC | inactive: 47.1 µM
41 | COc1ccc(Nc2nc(N)c(C(=O)c3ccc(Cl)cc3)s2)cc1 | active: 0.206 µM
42 | C#CCNC(=O)NCCCCC(NC(C)=O)C(=O)NCc1ccccc1 (configuration not stated) | inactive: > 100 µM
43 | O=[N+]([O-])c1ccccc1/C=N/C12CC3CC(CC(C3)C1)C2 | inactive: > 100 µM
44 | O=C1c2[nH]c3ccccc3c2CCN2CCCCC12 (configuration not stated) | inactive: 48.5 µM

Row | SMILES | GI50
45 | CSc1c(C)c(C)nn1-c1ccccc1 | inactive: > 100 µM
46 | CC1=CC(=O)/C(=C/Nc2nc(-c3cccc([N+](=O)[O-])c3)cs2)C(=O)O1 | inactive: > 100 µM
47 | O=[N+]([O-])/C(C(Cl)=C(Cl)Cl)=C1/OCCS1 | inactive: 59.7 µM
48 | COc1cc2c3c(n(C)c(=O)c2cc1OC)-c1cc2c(cc1/C3=C/CCCCBr)OCO2 | inactive: > 100 µM
49 | NC(=O)C(=CNC(=S)Nc1cccc(C(F)(F)F)c1)C(N)=O | inactive: > 100 µM
50 | O=[N+]([O-])C(=C(N1CCOCC1)N1CCOCC1)/C(Cl)=C(\Cl)[N+](=O)[O-] | inactive: 23 µM
51 | CC(=O)OC1CC2C(C)(C)C(=O)C=CC2(C)C2CCC3(C)C(c4ccoc4)OC(=O)C4OC43C12C (configuration not stated) | inactive: 7.33 µM
52 | C=CCOCn1ccc(NC(=O)c2ccccc2)nc1=O | inactive: > 100 µM
53 | C=CCn1c(-c2ccc(Cl)cc2Cl)cs/c1=N\c1c(C)n(C)n(-c2ccccc2)c1=O | inactive: 14.6 µM
54 | CCOC(=O)CC1=N/C(=N/c2cc(Cl)ccc2Cl)SC1 | inactive: > 100 µM
55 | COc1ccc(S(=O)(=O)NNS(C)(=O)=O)cc1 | inactive: > 100 µM
56 | CC1(C)Oc2ccccc2N2O[C@@H]3C(=O)N(c4ccccc4)C(=O)[C@@H]3C21c1ccccc1 (some centres not stated) | inactive: 29.2 µM
57 | CCOC(=O)/C(=N/Nc1ccccc1)N1C(=S)N(C)N=C(C)C=C1S | inactive: > 100 µM
58 | CC1(C)CC(=O)C2=C(C1)NC(SCC(=O)O)=C(C#N)C2c1ccc(Br)cc1 (configuration not stated) | inactive: > 100 µM
59 | C#CC1(O)CC(c2ccccc2)N(C)C(c2ccccc2)C1 (configuration not stated) | inactive: > 100 µM
60 | CCOc1ccccc1NC(=O)CC(C(=O)OC)C(=O)C(=O)OC (configuration not stated) | inactive: > 100 µM
61 | CCOC(=O)NC(=O)c1cn(C2CCCCC2)c(=O)[nH]c1=O | inactive: > 100 µM
62 | O=[N+]([O-])c1ccc(C2=NN(c3ccccc3)C[N+](c3ccc(Br)cc3)=N2)cc1 | inactive: > 100 µM
63 | Cc1ccc(C)c(COCCOCn2ccc(N)nc2=O)c1 | inactive: > 100 µM
64 | COC(=O)CN1Cc2cc(C)cc(c2O)CN(CC(=O)OC)Cc2cc(C)cc(c2O)CN(CC(=O)OC)Cc2cc(C)cc(c2O)CN(CC(=O)OC)Cc2cc(C)cc(c2O)C1 | inactive: 8.02 µM
65 | C[N+]12CCCCC1C(CN1C(=O)c3ccccc3C1=O)CCC2 (configuration not stated) | inactive: > 100 µM
66 | O=C(O)CCC1(C(=O)O)CCC(=O)c2ccccc21 (configuration not stated) | inactive: > 100 µM

Row | SMILES | GI50
67 | COc1ccc(C2C=C(c3ccc4c(c3)OCO4)Oc3c2c(=O)oc2ccccc32)cc1OC (configuration not stated) | active: 0.706 µM
68 | COc1ccc(C2OC[C@H]3O[C@@H](OCc4ccccc4)[C@H](O)[C@@H](O)[C@@H]3O2)cc1 (some centres not stated) | inactive: > 100 µM
69 | CC1OC(OC2C(CO)OC(O[C@H]3CC[C@@]4(C)C(=CC[C@H]5[C@@H]6C[C@@H]7O[C@](O)(CC[C@@H](C)COC8OC(CO)C(O)C(O)C8O)[C@@H](C)[C@@H]7[C@@]6(C)CC[C@@H]54)C3)C(OC3OC(C)C(O)C(O)C3O)C2O)C(O)C(O)C1O (some centres not stated) | inactive: 2.83 µM
70 | O=C1NC(=O)C2(CCC(O)C2)c2cc[n+]([O-])cc21 (configuration not stated) | inactive: > 100 µM
71 | CC(CO)CCC(O)C(C)(O)C1CCC2(O)C3=CC(=O)C4CC(O)C(O)CC4(C)C3CCC12C (configuration not stated) | inactive: > 100 µM
72 | Cn1c(=O)oc2cc(C3CCC(=O)N3Cc3csc(-c4ccccc4)n3)ccc21 (configuration not stated) | inactive: > 100 µM
73 | COc1ccc2nc3cc(Cl)ccc3c(NCCCN(Cc3cc(OC)c(OC)c(OC)c3)Cc3cc(OC)c(OC)c(OC)c3)c2c1 | inactive: 11.3 µM
74 | O=C1C(CN2CCCC2)CCC1CN1CCCC1 (configuration not stated) | inactive: > 100 µM
75 | COc1cc(C[S+]2CCCC2)c(SC)cc1C[S+]1CCCC1 | inactive: > 100 µM
76 | COc1ccc2c(c1)CCCc1cn[nH]c1-2 | inactive: > 100 µM
77 | O=C(COc1ccc2c(=O)cc(-c3ccc(Cl)cc3)oc2c1)N1CCN(c2ccccc2)CC1 | inactive: 32.4 µM
78 | O=C(O)C(Br)C(Br)c1ccccc1[N+](=O)[O-] (configuration not stated) | inactive: > 100 µM
79 | CCC(C)C1NC(=O)C(NC(=O)c2c3nc4c(C(=O)NC5C(=O)NC(C(C)CC)C(=O)N6CCCC6C(=O)N(C)CC(=O)N(C)C(C(C)C)C(=O)OC5C)ccc(C)c4oc-3c(C)c(=O)c2O)C(C)OC(=O)C(C(C)C)N(C)C(=O)CN(C)C(=O)C2CCCN2C1=O (configuration not stated) | inactive: 4.24 µM
80 | CCC(=O)n1c(=O)n(-c2ccc([N+](=O)[O-])cc2)c(=O)n1C(=O)CC | inactive: > 100 µM
81 | CC(C)(CCC(C)(C)c1ccccc1)c1ccccc1 | inactive: 19.8 µM
82 | CCOC(=O)C#Cc1ccc([N+](=O)[O-])cc1 | active: 0.849 µM
83 | COC12C=CC(CC1)c1c(O)ccc(O)c12 (configuration not stated) | inactive: > 93.1 µM
84 | Cc1c[n+]([O-])c2ccccc2[n+]1[O-] | inactive: > 100 µM
85 | CCNC1CC(C(C)(C)NCC)CC=C1C (configuration not stated) | inactive: > 100 µM
86 | COC1C(O)C(O[C@H]2CC[C@@]3(C)C(CC[C@@H]4[C@@H]3CC[C@]3(C)[C@@H](C(C)OC5OC(CO)C(O)C(O)C5O)CC[C@]43O)C2)OC(C)C1OC1OC(CO)C(O)C(O)C1O (some centres not stated) | inactive: > 100 µM
87 | CCN(CC)CCOc1ccc(N2C(=O)c3cc(OC)c(OC)cc3C2=O)cc1 | inactive: > 100 µM

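Cells were grown in 96-well plates and exposed to each compound for 48 hours at five concentrations; endpoints were interpolated linearly between bracketing concentrations, or set to the highest concentration if not reached. GI50 = concentration required for 50% inhibition of growth.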 The source made the active and inactive calls. Cut-off read from the data, not from the text of the source: active = GI50 up to about 1.1 µM and inactive = higher. Peptide text beside a SMILES is read from it.
